# In the supplement of paper PMC5499739:
# In all, about 16,000 sequences were measured (“Z-score”: median about -0.37, highest 2% from about 3.2 on). This is one part of the list.
# Tested on: RBM10 RRM1-ZnF (GST-tagged construct)
# Experiment: RNAcompete 7-mer binding Z-score; higher = stronger binding preference
# Procedure, shortened: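 A one-sided Z-score for enrichment, taken across the probes containing each heptamer motif, was assigned to every such motif. The RNA came from a designed pool of 241 399 sequences up to 41 nt (1.5 nmol), bound by 20 pmol of GST-tagged RBM10 constructs in 1 ml Hepes pH 7.8 buffer with glutathione Sepharose beads for 30 min at 4°C. Four 2-min washes at 4°C preceded identification of bound RNA by microarray hybridisation.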
row,Sequence,RNAcompete 7-mer binding Z-score
1,UCUCUAC,-0.808
2,GCCUGAU,-0.704
3,UAUGUCU,-0.688
4,UACGCAG,-0.259
5,CAAGGAA,1.48
6,UUCAGUG,-0.0317
7,CCCAGUU,-0.61
8,CUACAGC,-0.889
9,CUGUGAU,-0.698
10,GUGCUCU,-0.552
11,CACUUAU,-0.727
12,UUUAAUG,-0.526
13,AUGAUCU,-0.665
14,GAUCGCU,-0.552
15,GGACCAA,0.0723
16,UAUGGCG,0.537
17,AGGAAAC,0.995
18,AUCGACG,-0.311
19,UAUAUUC,-0.591
20,AUUAUCU,-0.769
21,CACCUAC,-0.584
22,CGGACCA,0.0365
23,GGGGUGC,2.92
24,AAAGGGC,2.62

row,Sequence,RNAcompete 7-mer binding Z-score
1,AAACCGG,0.183
2,GGGAGUA,2.53
3,UUCUCGC,-0.769
4,CGUAUGA,-0.24
5,AAGGCCA,-0.00896
6,GAGGUUG,2.4
7,CGUAAUG,-0.327
8,AGUUAGA,0.306
9,CAAUGGG,2.34
10,AGCGCAA,-0.295
11,AGACGCC,-0.977
12,AUCAUGC,-0.626
13,UCAGCUC,-0.756
14,UAUGACU,-0.604
15,CACCUAU,-0.902
16,GUACCGC,-0.256
17,UCAUCAU,-0.6
18,UAGACCC,-0.454
19,AUUAUGG,0.901
20,GAUGAGA,1.02
21,ACGAUGA,0.121
22,AACUCCC,-0.759
23,UGUAGAA,0.501
24,AAGUGGA,3.31

row,Sequence,RNAcompete 7-mer binding Z-score
1,UCUGCGA,-0.707
2,CCCAACG,-0.285
3,GAAUCUU,-0.733
4,ACCGGGG,1.81
5,GAAUCAA,0.0333
6,UUAAGGU,1.37
7,UAGCGCG,-0.0902
8,UCAGAGU,-0.11
9,UGUUUUA,-0.461
10,UCGUCCG,-0.701
11,UACGCCG,-0.707
12,GGCAAGC,0.436
13,UCUGCUU,-0.828
14,GGCAGUG,1.03
15,ACCGAGA,-0.392
16,CAGAGCA,0.0495
17,GUUCCAA,-0.72
18,CAAAGAA,-0.298
19,CUCUUUG,-0.912
20,CGAAUAC,-0.363
21,UUUUUUC,-0.795
22,GGAUUCU,-0.152
23,GACAGGG,2.98
24,CAACCUC,-0.717

row,Sequence,RNAcompete 7-mer binding Z-score
1,UCAUUAC,-0.766
2,CAGGGUG,3.21
3,UUCCGUU,-0.626
4,CGCCAAA,-0.746
5,CCUGUGU,-0.607
6,AUGGACU,0.829
7,GUCAACA,-0.022
8,GCCCGCG,-0.165
9,AGUUAAC,-0.175
10,UUUGGAU,0.082
11,AGGCCAG,-0.171
12,AACUCGA,-0.613
13,UCUAACA,-0.565
14,CUUACGC,-0.86
15,GAUUUAU,-0.402
16,CAUAAGA,-0.513
17,GUUCCGU,-0.386
18,UUGUUGA,-0.0512
19,CAAUGCC,-0.802
20,CGCCCUA,-0.662
21,GAUGGUC,0.563
22,UGGGUAG,3.5
23,GGAAUGA,2.05
24,UGCAUUA,-0.366

row,Sequence,RNAcompete 7-mer binding Z-score
1,ACAUCGC,-0.649
2,UCGCGGA,0.248
3,UGCGAAU,-0.165
4,GGGCUCU,0.157
5,GGCAUAG,1.16
6,CUCGGCG,-0.0999
7,GAGUUUC,-0.435
8,UCUCAUG,-0.607
9,AUAUAUA,-0.428
10,ACAUGGU,0.982
11,GACCAAG,-0.269
12,UCUAGGC,-0.415
13,AUCCUAU,-0.834
14,ACUUAUG,-0.655
15,CUCAGUG,-0.353
16,UCCGUGA,-0.756
17,AAGUUUA,-0.516
18,UCGAUCC,-0.649
19,CGCAAGG,0.566
20,UAUAUAG,-0.207
21,UUAAAGC,-0.366
22,AUACAUG,0.231
23,GUCCCAC,-0.558
24,AUUAGAA,0.115

row,Sequence,RNAcompete 7-mer binding Z-score
1,UAUAUUA,-0.454
2,UUCCUAG,-0.714
3,GGACGCG,0.836
4,CGCCGGU,-0.35
5,UGUUGGA,1.14
6,UAUCCAA,-0.779
7,GCGGUCA,0.166
8,UAGGAAG,1.72
9,UACCCGC,-0.539
10,GGCCAUU,-0.584
11,GUCCGCA,-0.62
12,CCGCUAA,-0.798
13,UGACUAG,0.244
14,UAUACGG,0.326
15,GUUUGGA,1.36
16,AGGAAUU,0.465
17,CCUCUAA,-0.795
18,AGUGGAC,1.34
19,CGAGAAC,-0.376
20,UUCGAGA,-0.36
21,GCGAAGU,0.391
22,GAAUAGG,3.04
23,CGUAUUC,-0.672
24,CUAACAA,-0.672

row,Sequence,RNAcompete 7-mer binding Z-score
1,AAUGGCA,1.14
2,UUGCUCU,-0.886
3,UCGUAUU,-0.636
4,CUCGCCU,-0.717
5,CAUCGAG,-0.165
6,UGACGGG,2.25
7,ACUUUGU,-0.954
8,UUACAAC,-0.402
9,CCAUCAG,-0.769
10,UUUCCUU,-0.948
11,CAGGGAA,2.96
12,GACUCAC,-0.672
13,AAAUAUU,-0.646
14,UAACCGU,-0.763
15,CGCAACC,-0.594
16,CCACUCU,-0.711
17,UUCCACC,-0.701
18,ACAUCCG,-0.704
19,GCUAGAU,-0.295
20,AUCUCAC,-0.74
21,GAGCUAA,-0.00896
22,ACCCAAA,-0.811
23,UACCUUA,-0.87
24,AAUUAUU,-0.617

row,Sequence,RNAcompete 7-mer binding Z-score
1,UCUAUAU,-0.733
2,GAGGGAC,2.06
3,UGGUUUG,1.9
4,UACCAGA,-0.584
5,UCGUUAG,-0.269
6,AAUACGA,-0.282
7,CUUGAAC,-0.805
8,UCGACAU,-0.428
9,CCCACCC,-0.295
10,GGAAGAG,3.13
11,UGUGACA,-0.145
12,CGCUUAC,-0.623
13,AAUAAUC,-0.548
14,ACGGUGG,2.76
15,GUAGGAC,1.4
16,GACAUAA,-0.259
17,UUGUGUA,-0.305
18,ACUACGA,-0.396
19,AUAGCAA,-0.0999
20,UGUUGAU,-0.233
21,UACCCUA,-0.62
22,AUUUAUA,-0.617
23,UCCACAU,-0.681
24,UUCAUCU,-0.717

row,Sequence,RNAcompete 7-mer binding Z-score
1,UUGGCCA,-0.366
2,CAUAAAU,-0.681
3,CUGGCGA,-0.0707
4,GCAUUAG,-0.171
5,CUUGUGG,0.000789
6,CAAAUAU,-0.727
7,ACCAACG,-0.483
8,GACAAGC,-0.256
9,UAUGGGA,2.85
10,UUGGGGG,3.56
11,GGGGGUA,3.99
12,UGUUCGG,0.0853
13,GAGCAAU,-0.126
14,AGCAUUA,-0.555
15,ACCUUUU,-1.03
16,UCUACGC,-0.763
17,CAUCAUU,-0.701
18,GGGACCA,1.25
19,CUAGUAA,-0.487
20,CAUGGUA,0.55
21,CGCUCUG,-0.694
22,AACGUCG,-0.236
23,UGGACAG,1.61
24,AGAAACC,-0.74

row,Sequence,RNAcompete 7-mer binding Z-score
1,CGCCAGG,0.384
2,CAACCCA,-0.542
3,UGCCGCG,-0.574
4,GAAAAAG,1.49
5,CAACUGC,-0.753
6,UGCUUCU,-0.665
7,UGUACGG,0.943
8,CGAUUAG,-0.149
9,UAAAUCG,-0.435
10,AUUCGCA,-0.545
11,UCCAAGA,-0.548
12,AGUUACG,-0.0577
13,GCCGAGC,-0.113
14,CCCACUG,-0.483
15,GGUAUAU,0.956
16,GUUCUUC,-0.698
17,AGGUAGC,0.803
18,AGCGAUC,-0.337
